Experimental findings from the supplement of paper PMC6609913 are described below.

The test system of the assay is V-C8 + BRCA2 (BRCA2-proficient hamster cells). Kind of assay: normalised cell viability (fraction of plate median); higher = more viable cells (less toxic). As to conditions: 5 µM. The gist of the method:
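BRCA2-deficient hamster V-C8 cells and BRCA2-restored V-C8 cells were plated in 96-well plates, and library drugs were added 24 h later at 5 μM in 100 μl medium. Exposure lasted 3 days in screen 1 and 6 days in screen 2, next to solvent-only wells. Viability was then read by resazurin assay, median-plate normalised and averaged across triplicate wells.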

Where a name gives a salt, the structure may show the parent alone. ± gives the standard deviation of the averaged measurements. The full ranking holds about 1,300 compounds; the median of “normalised cell viability” is about 1, and the lowest 2% start at about 0.15. The list shows a part of the results.

For `CNC(=C[N+](=O)[O-])NCCSCc1csc(CN(C)C)n1` [Nizatidine], the normalised cell viability (treatment time: 3 days) worked out at 1 ± 0.012 and the normalised cell viability (treatment time: 6 days) was 1.05 ± 0.042.
With `C[C@]12C=CC(=O)C=C1CC[C@@H]1[C@@H]2C(=O)C[C@@]2(C)[C@H]1CC[C@]2(O)C(=O)CO` [Prednisone], the normalised cell viability (treatment time: 3 days) is 0.942 ± 0.026 and the normalised cell viability (treatment time: 6 days) came out at 1.03 ± 0.17.
`C[C@@H]1CN(c2c(F)c(N)c3c(=O)c(C(=O)O)cn(C4CC4)c3c2F)C[C@H](C)N1` [Sparfloxacin]: the normalised cell viability by setting is: (treatment time: 3 days) 1.027 ± 0.009; (treatment time: 6 days) 1.05 ± 0.056.
For `CCn1cc(C(=O)O)c(=O)c2cc(F)c(N3CCN(C)CC3)cc21` [Pefloxacine] the same measures were 1.048 ± 0.0097 and 1.09 ± 0.042.
For `CC[C@]12CCCN3CCc4c(n(c5ccccc45)C(=O)C1)[C@@H]32` [Eburnamonine (-)] the same measures were 0.469 ± 0.075 and 0.493 ± 0.16.
Taken in the same sequence, the figures for `CC(=O)Oc1cc(C(C)C)c(OCCN(C)C)cc1C` [Moxisylyte hydrochoride] were 1.04 ± 0.0057 and 1.04 ± 0.021.
In the case of `CC(c1cc2ccccc2s1)N(O)C(N)=O` (stereo not drawn) [Zileuton], the normalised cell viability reads like this: (treatment time: 3 days) 1.04 ± 0.029; (treatment time: 6 days) 1.04 ± 0.035.
For `COc1cc(C)c(/C=C/C(C)=C/C=C/C(C)=C/C(=O)O)c(C)c1C` [Acitretin] the same measures were 0.936 ± 0.031 and 0.9633 ± 0.0092.
For `CC(C)OC(=O)CCC/C=C\C[C@@H]1[C@@H](CC[C@@H](O)CCc2ccccc2)[C@H](O)C[C@@H]1O` [Latanoprost] the same measures were 1.12 ± 0.051 and 0.955 ± 0.077.
For `NS(=O)(=O)c1cc2c(cc1Cl)NCNS2(=O)=O` [Hydrochlorothiazide], the normalised cell viability is, setting by setting: (treatment time: 3 days) 0.885 ± 0.087; (treatment time: 6 days) 1.01 ± 0.035.
For `C[N+]1(C)CCC(=C(c2ccccc2)c2ccccc2)CC1` [Diphemanil methylsulfate] the same measures were 0.949 ± 0.027 and 0.953 ± 0.031.
Taken in the same sequence, the figures for `CN(C)CCC=C1c2ccccc2C=Cc2ccccc21` [Cyclobenzaprine hydrochloride] were 1.06 ± 0.062 and 1.08 ± 0.034.
For `O=c1[nH]c(=O)n([C@H]2C[C@H](O)[C@@H](CO)O2)cc1F` [Floxuridine] the same measures were 0.179 ± 0.0082 and 0.236 ± 0.018.
On to `CNNCc1ccc(C(=O)NC(C)C)cc1` [Procarbazine hydrochloride], for which the normalised cell viability by setting is: (treatment time: 3 days) 0.879 ± 0.049; (treatment time: 6 days) 0.956 ± 0.099.
For `COc1cc2nc(N3CCN(C(=O)C4CCCO4)CC3)nc(N)c2cc1OC` (stereo not drawn) [Terazosin hydrochloride], the normalised cell viability (treatment time: 3 days) was 1.03 ± 0.032 and the normalised cell viability (treatment time: 6 days) was found to be 1.09 ± 0.075.
For `Nc1ccc(S(=O)(=O)Nc2ccc(Cl)nn2)cc1` [Sulfachloropyridazine] the same measures were 0.941 ± 0.026 and 0.972 ± 0.065.
Taken in the same sequence, the figures for `CN(C)CCCOc1nn(Cc2ccccc2)c2ccccc12` [Benzydamine hydrochloride] were 1.32 ± 0.034 and 1.38 ± 0.08.
Turning to `C#C[C@]1(O)CC[C@H]2[C@@H]3[C@H](C)CC4=C(CCC(=O)C4)[C@H]3CC[C@@]21C` [Tibolone], the normalised cell viability (treatment time: 3 days) was 1.07 ± 0.013 and the normalised cell viability (treatment time: 6 days) was 1.04 ± 0.045.
Taken in the same sequence, the figures for `CC(=O)OCC(=O)[C@@]1(O)CC[C@H]2[C@@H]3CCC4=CC(=O)C=C[C@]4(C)[C@@]3(F)[C@@H](O)C[C@@]21C` [Isoflupredone acetate] were 0.901 ± 0.067 and 1.02 ± 0.08.
For `NCc1ccccc1CC(=O)N[C@@H]1C(=O)N2C(C(=O)O)=C(CSc3nnnn3CC(=O)O)CS[C@H]12` [Ceforanide] the same measures were 1.04 ± 0.073 and 1.01 ± 0.12.
Turning to `N=C(NCCCCCCNC(=N)NC(=N)Nc1ccc(Cl)cc1)NC(=N)Nc1ccc(Cl)cc1` [Chlorhexidine], the normalised cell viability (treatment time: 3 days) worked out at 0.117 ± 0.0076 and the normalised cell viability (treatment time: 6 days) was found to be 0.103 ± 0.0066.
Regarding `CN1CCN(C2=Nc3ccccc3Oc3ccc(Cl)cc32)CC1` [Loxapine succinate], the normalised cell viability was 1.19 ± 0.087 (treatment time: 3 days) and 1.1 ± 0.048 (treatment time: 6 days).
As for `C[N+]1(C)CCC(OC(=O)C(O)(c2ccccc2)C2CCCC2)C1` (stereo not drawn) [Glycopyrrolate], the normalised cell viability stood at 1.07 ± 0.012 (treatment time: 3 days) and 1.04 ± 0.12 (treatment time: 6 days).
For `Clc1ccc(CCC(Cn2ccnc2)Sc2c(Cl)cccc2Cl)cc1` (stereo not drawn) [Butoconazole nitrate] the same measures were 0.898 ± 0.05 and 0.906 ± 0.057.
For `N#Cc1ccc(C(c2ccc(C#N)cc2)n2cncn2)cc1` [Letrozole] the same measures were 1.02 ± 0.022 and 1.02 ± 0.028.
Take `C[C@@H]1C[C@H]2[C@@H]3C[C@H](F)C4=CC(=O)C=C[C@]4(C)[C@@]3(F)[C@@H](O)C[C@]2(C)[C@@]1(O)C(=O)CO` [Flumethasone]: the normalised cell viability reads like this: (treatment time: 3 days) 1.04 ± 0.064; (treatment time: 6 days) 1.06 ± 0.079.
For `O=C(O)Cc1ccc(-c2ccccc2)cc1` [Felbinac] the same measures were 1.03 ± 0.03 and 1.09 ± 0.037.
Taken in the same sequence, the figures for `O=C(O)c1cn(-c2ccc(F)cc2)c2cc(N3CCNCC3)c(F)cc2c1=O` [Sarafloxacin] were 1.07 ± 0.09 and 1.02 ± 0.044.
For `O=C1c2c(O)cccc2Cc2cccc(O)c21` [Anthralin], the normalised cell viability runs as follows: (treatment time: 3 days) 0.979 ± 0.036; (treatment time: 6 days) 0.978 ± 0.018.
For `COc1cc(C(=O)OCCCN2CCCN(CCCOC(=O)c3cc(OC)c(OC)c(OC)c3)CC2)cc(OC)c1OC` [Dilazep dihydrochloride] the same measures were 0.913 ± 0.096 and 0.92 ± 0.077.
Taken in the same sequence, the figures for `CC(=O)Oc1ccccc1C(=O)Nc1ncc([N+](=O)[O-])s1` [Nitazoxanide] were 0.912 ± 0.043 and 0.97 ± 0.099.
Take `CCN(CC)CCOC(=O)C1(C2CCCCC2)CCCCC1` [Dicyclomine hydrochloride]: the normalised cell viability by setting is: (treatment time: 3 days) 1.06 ± 0.026; (treatment time: 6 days) 0.997 ± 0.016.
For `CCCCC(O)c1ccccc1` (stereo not drawn) [Fenipentol] the same measures were 1.03 ± 0.043 and 1.03 ± 0.017.
For `CC(N/C(=N\C#N)Nc1ccncc1)C(C)(C)C` (stereo not drawn) [Pinacidil] the same measures were 0.994 ± 0.056 and 0.967 ± 0.027.
